Out of some 410,000 compounds screened, about 7,200 (1.8%) were called active. Inconclusive results, whose numbers are uncertain, are shown with a selection of clear calls. Calls come from the whole dose curve; as a rule, active = well fitted activation curve with a large enough effect; inconclusive = small, poorly fitted or top-dose-only effect, or another doubt; inactive = no such curve, though single readings can be large or run the other way. No potency is given beside an inconclusive call; the fits are too rough.
Test: qHTS of TDP-43 Inhibitors; note: nearly all actives have a fitted effect of over 50% in size; for growth rescue (activation): % of control where 0% means no effect
Conditions: TDP-43 expressing yeast growth rescue, BacTiter-Glo, 24 h; growth rescue (activation): at 46.1 µM (top of the series) unless noted
Method in brief: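 Galactose-induced TDP-43 yeast, OD600=0.02, compound pinned; 24 hr, 30 deg C; BacTiter-Glo luminescence for growth. Inhibitors of TDP-43 toxicity read as activators.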
Potency is the fitted concentration of half-maximal effect; tags give direction and shape of the fitted curve.

Structure (SMILES)	Potency	growth rescue (activation)
Cc1cccc(C(=O)O/N=C(/c2ccccc2)c2ccncc2)c1	active: 7.08 µM	
Cc1cc(C)cc(OC(=O)CS(=O)c2ccc(C(F)(F)F)cc2[N+](=O)[O-])c1 (configuration not stated)	inconclusive [activator, partial curve]	
CCOC(=O)C1=C(CS(=O)(=O)c2ccc(C)cc2)NC(=O)NC1c1ccc(C(C)C)cc1 (configuration not stated)		inactive: -5.52%
Cn1c(N)c(N=O)c(=O)n(C)c1=S		inactive: -26%
CC(C)(C)c1ccc(C(=O)O/N=C(\N)Cc2cccs2)cc1		inconclusive: -92.6% [activator]
COc1cc(CNC2CCCc3ccccc32)cc(OC)c1OC (configuration not stated)		inactive: -10.2%
Cc1ccc(C2CC(c3ccccc3)=NN2c2ccc(S(N)(=O)=O)cc2)cc1 (configuration not stated)	inconclusive [activator, single point]	
Cc1c(C)n(C)c2ccc(C(=O)Nc3cccc4ccccc34)cc12	inconclusive [activator, partial curve, poor fit]	
O=C(NCCNc1cc(Cl)ccc1[N+](=O)[O-])c1ccco1		inactive: 24%
Cn1c(SC/C=C/c2ccccc2)nnc1-c1cccs1	active: 17.8 µM	
CCC(=O)N1c2ccc(S(=O)(=O)N3CCCCC3)cc2CC1C (configuration not stated)	inconclusive [activator, single point]	
CCCCC(c1nnnn1CC1CCCO1)N1CCN(c2cc(Cl)ccc2C)CC1 (configuration not stated)	active: 17.8 µM	
c1ccc(CNc2nc(CN3CCOCC3)nc3scc(-c4ccccc4)c23)cc1	inconclusive [activator, partial curve, poor fit]	
O=C1c2ccccc2C(=O)N1CCCCCCc1ccccc1		inactive: 24.3%
COc1ccc(CN(C(=O)/C=C/C(=O)c2ccc(OC)cc2O)C(C(=O)NC2CCCCC2)c2ccncc2)cc1 (configuration not stated)		inactive: 28.3%
CCOC(=O)/C(C#N)=C\c1ccc2c(c1)OCO2	inconclusive [activator, single point]	
CC(NC(=S)NCc1ccc(F)cc1)C12CC3CC(CC(C3)C1)C2 (configuration not stated)		inactive: -5.97%
CNc1ccccc1C(=O)OC(C)C(=O)Nc1ccc(Cl)cn1 (configuration not stated)	inconclusive [activator, partial curve]	
CN(C)c1cccc(NC(=O)c2cccc3c(-c4ccc(F)c(F)c4)coc23)c1	active: 14.1 µM	
Cc1ccc(S(=O)(=O)Cc2cc(F)c([N+](=O)[O-])cc2[N+](=O)[O-])cc1		inconclusive: -92.7% [activator]
CCCCc1ccc(S(=O)(=O)NC(=O)C2(C)CCN2C(=O)CCc2cccs2)cc1 (configuration not stated)	active: 35.5 µM	
CCOC(=O)C1(C)CCN1C(=O)c1ccc(C(F)(F)F)cc1 (configuration not stated)		inactive: 9.71%

— PubChem BioAssay AID652104 (National Center for Advancing Translational Sciences (NCATS), 2013)
